# Results reported in paper PMC12136788.
# The other results are listed elsewhere or left out.
# T1: UNK ZnF1-3 (human, UniProt Q9C0B0 31-174)
# T1 sequence: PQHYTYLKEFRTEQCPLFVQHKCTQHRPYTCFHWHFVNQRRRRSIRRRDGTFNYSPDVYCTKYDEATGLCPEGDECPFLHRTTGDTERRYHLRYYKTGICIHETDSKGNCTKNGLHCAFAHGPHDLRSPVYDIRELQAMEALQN
# B1: chr1:39494447:39494448:+_ENSG00000168653_ENST00000372967|hu_mus|hu_hu_hu_mus_False|68_108 (ssRNA)
# RNA: GGGAGUUCUACAGUCCGACGAUCGCAUCGACCAGCCUUCUUAUAGGGCUGUUCUGCGCUUAGGAACGUCAACCAUCGGUCCAGGCUGAUGCCCAGCUUUUUCUGUAUGUCAAGGAAAGGCAUGGCUCUGCAGUGCCCUUGUCACAACAGAGGAUUGAGCAUCA
# B2: 167247438_167248962_1453_CDS_ENSMUSG00000040836_ENSMUST00000111450|mouse|control|control (ssRNA)
# RNA: GGGAGUUCUACAGUCCGACGAUCGCUCCUCCUCUUGGGUGGGCAAGUGCAGUGCUGGGGAGGGUUGUCCUCAGAAGUGCCAUCUUCCAACAGCAUCACAUCCGUCCCUGAAUCCUGAGAGUAGCUGAAGCCUGUGUCACCGGUCAACAGAGGAUUGAGCAUCA
# B3: chr3:128516864:128516865:+_ENSG00000075785_ENST00000265062|hu_hu|motif|central (ssRNA)
# RNA: GGGAGUUCUACAGUCCGACGAUCCUGCAUUGUGACUAGCCUGUCAUCCACCAUCACCUCCUUGGUCAGAAAGUCAGCUCCGGUUGUGGCUUUGUACUGAUUGCUGAAUUUCUUAUUCACAUACUGGUUCAUGAGUGAUGUCUUCAACAGAGGAUUGAGCAUCA
# B4: 108930381_108930501_2154_3pUTR_ENSMUSG00000033623_ENSMUST00000046975|mouse|control|control (ssRNA)
# RNA: GGGAGUUCUACAGUCCGACGAUCUGCUAGUGUCUUAUUCAUUCUCUAACCUAACAAAGCAAUAAAUUGUAUGUGAGAAAGGUGUGUGUGUUAACAAAUACUAUCCUCUCUAUGACUGAAAAAGCCACUUCUGCUGAAGCGAGCCAACAGAGGAUUGAGCAUCA
# B5: chrX:153990882:153990883:-_ENSMUSG00000046873_ENSMUST00000058098|mus_hu|FALSE|FALSE (ssRNA)
# RNA: GGGAGUUCUACAGUCCGACGAUCAGCUCCUGAGAGGGAAAUCAGGUACUUGACAAAUGUCUCCACAACCACUGGCAGAUCUAUGCUUAGAAAGUUAAAACGUGGGAUAAAACUGGUGAUGCUCACUGUGUAGUGAAGAUGCAGCAACAGAGGAUUGAGCAUCA
# B6: 82825173_82825293_2862_3pUTR_ENSMUSG00000042724_ENSMUST00000035987|mouse|control|control (ssRNA)
# RNA: GGGAGUUCUACAGUCCGACGAUCGGGCUGUGAGGGUGACAUGGGUGGGAGUCAAGGACUGGUUGGGGUCUCUCUUGAAGCGCUCCACUCGGACAUUAACCAGGGGGUUGUGGGUACAUUGGGUUAGGGGUGGAGCUUCAACUGCAACAGAGGAUUGAGCAUCA
# B7: 38037259_38046042_748_3pUTR_ENSG00000065882_ENST00000510573|human|control|control (ssRNA)
# RNA: GGGAGUUCUACAGUCCGACGAUCAAAUCGAGUGGCACUGGGUGGUAAUUCACUUCCAAUAUUCUCUGCUGCCAUCUGCGAUGUCUGCUUCAUCUCCCCAAUAUGGAUGUGUUCUUUCUGUUUCUCUUCAUAUAAACAUCUCAGCAACAGAGGAUUGAGCAUCA
# B8: chr1:41461666:41461667:+_ENSG00000171793_ENST00000372621|hu_hu|FALSE|FALSE (ssRNA)
# RNA: GGGAGUUCUACAGUCCGACGAUCCCAUUUCAUCAGCAUUUUUCUUGGCUGCCUCUCAAUAGGAAGGUCAAGUCUUCGAAGAAAAUAAUCUACAACCCCUUGCUCCUCUAACAACAAGGGGACUCGGUAGAUGGAUGAGACAUCCAACAGAGGAUUGAGCAUCA
# B9: chr2:42509997:42509998:+_ENSG00000143924_ENST00000318522|hu_mus|hu_hu_hu_mus_True|1_38 (ssRNA)
# RNA: GGGAGUUCUACAGUCCGACGAUCUCGCUGAGUCCUCUCCUCAUAAUUAAACAGGACUACCACUGAGGCGAUAAAAUAAACUAUCUCCCCUGUGGGAAGAAGGUAAACAUUCGCUCUACAGUCCUUUCCUCGAUAACCAUAUGCCAACAGAGGAUUGAGCAUCA
# B10: chr14:53324496:53324497:-_ENSG00000073712_ENST00000341590|hu_mus|motif|central (ssRNA)
# RNA: GGGAGUUCUACAGUCCGACGAUCUAUUGUAACACAAAGGCUGCAUAUCUUAGGCAGAUAGUGAGUAUGCUGGUGAAUACGGAGAGUACUGUAAUACAGUUUGGUGUAAAACUAAACACAAAACAAUGUACAGCAUGCUUACUCCAACAGAGGAUUGAGCAUCA
# B11: chr10:36854569:36854570:-_ENSMUSG00000069662_ENSMUST00000092584|mus_mus|FALSE|FALSE (ssRNA)
# RNA: GGGAGUUCUACAGUCCGACGAUCAAACCACAGCCAAAUGUACUUUUGAUGGCAUGCAAGGCCUUCCUAAAAAAUUAAUCUAAGACCUAGAAGUCAGCCUCAGAACAUAAAAAAACACAACAAAUUUGUACAUUUUAUUCACAUCAACAGAGGAUUGAGCAUCA
# B12: chr6:41757443:41757444:+_ENSG00000214736_ENST00000398881|hu_hu|motif|central (ssRNA)
# RNA: GGGAGUUCUACAGUCCGACGAUCAGCCUGUCUGCUGACCAGAGAAUGGAAUUCUGCGUGGACUCAAGGAACAAAAGGAAACGGGGCAGGGAAGGGGAAGAAAAGUGCCCAUCUGAAUCAAACUUCAGCUGCCAUCAGGGCACACAACAGAGGAUUGAGCAUCA
# B13: chrX:69798090:69798091:-_ENSMUSG00000031343_ENSMUST00000055966|mus_mus|mus_mus_mus_hu_False|18_58 (ssRNA)
# RNA: GGGAGUUCUACAGUCCGACGAUCAAGUCCCCGGGUUCUUGUCGUCUUGAUUCCCCUUGACCAGUGGUUCCAGGGAGAAUACUAAUCAGGAAAAGAAUCCCAAGGCUGGUCAUGUAAAAGUGCCACAUUUGUGUGAUUAUCAUCCAACAGAGGAUUGAGCAUCA
# B14: chr5:21252845:21252846:+_ENSMUSG00000029017_ENSMUST00000030882|mus_hu|motif|central (ssRNA)
# RNA: GGGAGUUCUACAGUCCGACGAUCUGUUUGCAACCAUGAGACAGAUUGUAUCUGGAUGUGCCCAACCAACAGCUUCAACAGCGGUUGCAAGGUGCGCCAAAGGCAUCUUGUCAUCCCUCACACGAAUCUCACUUCCUGUGAAUUCAACAGAGGAUUGAGCAUCA
# B15: 7402660_7402780_1980_CDS_ENSG00000181222_ENST00000322644|human|control|control (ssRNA)
# RNA: GGGAGUUCUACAGUCCGACGAUCUUUGCGCACUGCUGUGAGUGUGUCCUGCACAAUACCCAUGACAGGCCGAUUGCUCUGGGGGGUGACAAUCAUGCGAGGAACCAUGGCCAGCUCCUGGAUCUCUGCUCGCGUCUCCAGAGACAACAGAGGAUUGAGCAUCA
# B16: 33326405_33326857_2386_CDS_ENSG00000005156_ENST00000378526|human|control|control (ssRNA)
# RNA: GGGAGUUCUACAGUCCGACGAUCGAAGUCAGGAUAGUAGAUCUUGUUGACCUUCAACCAGCUGGGUAUUUUGCUGGGGUCCUUGCUGAUCUUCACCAUGUCUAGUUCAUUCUGCAGGCGGGCAAGCGUGGCAUCAUCAUGGCCCAACAGAGGAUUGAGCAUCA
# B17: chr18:13746249:13746250:+_ENSG00000101654_ENST00000262173|hu_hu|motif|central (ssRNA)
# RNA: GGGAGUUCUACAGUCCGACGAUCAUUUUCAUUGUUCUUAAUCUUUUCUUCGUAGAAUUCCAGAAAUGUUUUUUUGUAGACGGGUUUCAUAUUGUACUUCUUUGCCAUUUCAUUUAGCAAUGGAAAAUAGACCAAGAAUUCAGGCAACAGAGGAUUGAGCAUCA
# B18: chr11:111909998:111909999:+_ENSG00000150768_ENST00000533297|hu_hu|motif|central (ssRNA)
# RNA: GGGAGUUCUACAGUCCGACGAUCACCCUUCCCUUUGGUCCAGCAGGAGUAGCUGGGCAGGGUGCUGAAGGUGUAGGAGCGGAAGGCUGGGGAGUUGGAGGAACAGCGGCCACCGGGGGUGGGGUAGGUGGUGGCACUUGUGGUCAACAGAGGAUUGAGCAUCA
# B19: chr3:179287964:179287965:+_ENSG00000136518_ENST00000429709|hu_hu|hu_hu_hu_mus_True|8_48 (ssRNA)
# RNA: GGGAGUUCUACAGUCCGACGAUCCUUGAGUGGUGAGAUGGCCUCCAUGUUCUCCCUGGGCACGCGGAGGGCAUUGGUGUCUAUGUAGUAGGUGGGACCGCCCUGCUUGCCUUUGUCACCAUCAAUCUCCAUUAAUGUACUUCCCAACAGAGGAUUGAGCAUCA
# B20: chr8:104081237:104081238:+_ENSG00000155097_ENST00000518738|hu_hu|motif|central (ssRNA)
# RNA: GGGAGUUCUACAGUCCGACGAUCAAUGGAAUUAAUGCAUACCAUGAUAUCAAUAAGGAAGAGACCUUCUCUUUAAAUAAACGGUUUUGUUUAUAAAUAAACUCUGAUUUUUUUAGUACACAUUUACAGACCUGAUCAAUAAAACAACAGAGGAUUGAGCAUCA
# B21: chr3:148802587:148802588:-_ENSG00000071794_ENST00000310053|hu_mus|hu_hu_hu_mus_False|78_78 (ssRNA)
# RNA: GGGAGUUCUACAGUCCGACGAUCUCCAACAACUUGUCCUCUCAUAGUUCCAAAUAAAACGGAAUCUUGCUCUUCAUCACUCGUUAGGAAGUCAUCUGGAGGAAUAAUGUCUUGGAAUUCAAAAUGUGGCAAGAAAGUUGAGUACAACAGAGGAUUGAGCAUCA
# B22: chr1:66480114:66480115:+_ENSMUSG00000015222_ENSMUST00000024639|mus_hu|mus_mus_mus_hu_True|98_108 (ssRNA)
# RNA: GGGAGUUCUACAGUCCGACGAUCUGGCCUGUGACGGAUGUUCUUUAGAGAGCCACAUUUGGAUGUCACAUGGCUUAGGUCUAUUUUCUUGGUAACAAUUUGUACCUGCCCCCCUUUAGGCUGGUAUUUGAUGUUGUCUGUUGACAACAGAGGAUUGAGCAUCA
# Biological target: T1, UNK ZnF1-3
# Assay: nsRBNS (natural sequence RNA bind-n-seq); RBNS binding buffer (assumed for nsRBNS): 25 mM Tris pH 7.5, 150 mM KCl, 3 mM MgCl2, 0.01% Triton X-100, 500 ug/ml BSA, 20 U/ml SUPERase-In, 4 C; UNK is unkempt and MSI1 is Musashi-1; names of the RNAs are library labels; protein concentration not given here; high values mean tight binding
row,Binder,binding signal
1,B1,0.719 enrichment R
2,B2,1.02 enrichment R
3,B3,0.54 enrichment R
4,B4,1.34 enrichment R
5,B5,1.71 enrichment R
6,B6,1.43 enrichment R
7,B7,0.63 enrichment R
8,B8,1.07 enrichment R
9,B9,1.11 enrichment R
10,B10,0.819 enrichment R
11,B11,1.69 enrichment R
12,B12,1.8 enrichment R
13,B13,0.609 enrichment R
14,B14,0.73 enrichment R
15,B15,0.652 enrichment R
16,B16,0.632 enrichment R
17,B17,0.704 enrichment R
18,B18,1.69 enrichment R
19,B19,0.655 enrichment R
20,B20,0.733 enrichment R
21,B21,1.43 enrichment R
22,B22,0.373 enrichment R
